# The whole screen tested about 330,000 compounds, of which about 1,700 (0.52%) were called active. Inconclusive means that the source gave no clear call. Such entries were picked first, then a sample of the others. Calls come from the whole dose curve; as a rule, active = well fitted inhibition curve with a large enough effect; inconclusive = small, poorly fitted or top-dose-only effect; inactive = no such curve, though single readings can be large or run the other way. Potencies of inconclusive entries are doubtful fits and often do not repeat.
# Molecular target: Beta-lactamase (Escherichia coli (strain K12)) (UniProt P00811)
# Assay: qHTS Inhibitors of AmpC Beta-Lactamase (assay without detergent); note: nearly all actives have a fitted effect of over 20% in size
# Conditions: AmpC nitrocefin hydrolysis, absorbance 480 nm, 0.0001% Triton; series mostly up to 57.1 µM
# Method in brief: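 AmpC (5.3 nM in the dispensed reagent) in 20 mM phosphate pH 7.0 with 0.01% (detergent screen) or 0.0001% Triton X-100 was preincubated with compounds for 15 min at room temperature. Nitrocefin was then added from an 800 uM solution, and hydrolysis was followed at 480 nm.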
# Potency is the fitted concentration of half-maximal effect; tags give direction and shape of the fitted curve.
# Sequence of UniProt P00811 (P00811 whole entry, looked up): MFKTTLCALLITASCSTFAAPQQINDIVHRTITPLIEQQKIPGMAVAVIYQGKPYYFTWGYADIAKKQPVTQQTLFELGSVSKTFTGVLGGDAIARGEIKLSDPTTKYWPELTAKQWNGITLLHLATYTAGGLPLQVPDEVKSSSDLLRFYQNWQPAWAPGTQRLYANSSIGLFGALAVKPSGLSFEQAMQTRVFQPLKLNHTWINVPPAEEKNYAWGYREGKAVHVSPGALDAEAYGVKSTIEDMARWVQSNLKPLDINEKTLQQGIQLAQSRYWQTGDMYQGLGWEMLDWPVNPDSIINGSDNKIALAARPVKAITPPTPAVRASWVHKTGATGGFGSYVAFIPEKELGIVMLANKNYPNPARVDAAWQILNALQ
row,SMILES,Potency
1,COc1ccc(NC(=O)N/C=C/c2ccccc2)cc1,inactive
2,COc1ccc(C(=O)N(c2ccccc2)C2C=CS(=O)(=O)C2)cc1 (centres undefined),"inconclusive: 3.98 µM [inhibitor, single point]"
3,CC(=O)N1CCC(=NNc2ncc(C(F)(F)F)cc2Cl)CC1,"inconclusive: 22.4 µM [inhibitor, single point]"
4,CN(CCC#N)C(=O)COC(=O)c1ccc(Cl)c(S(N)(=O)=O)c1,"inconclusive: 5.62 µM [inhibitor, partial curve, poor fit]"
5,Cc1ccc(-c2cn3c(n2)CCCC3)cc1,inactive
6,CCc1cccc(C)c1NC(=O)CSc1nc(-c2ccccc2F)nc2nc[nH]c12,"inconclusive: 39.8 µM [inhibitor, single point]"
7,COc1ccc(/C=N\NC(=O)c2cc(OCC(F)(F)F)ccc2OCC(F)(F)F)cc1,"inconclusive: 1.26 µM [inhibitor, partial curve, poor fit]"
8,CCC(=O)N(CC(=O)Nc1sc(C)c(C)c1C(N)=O)C1CCCCC1,"inconclusive: 6.31 µM [inhibitor, single point]"
9,COC(=O)c1cccnc1N1CCN(c2ccccc2F)CC1,active: 0.158 µM
10,N#C/C=C(/N)N1CCN(c2ccc(Cl)c(Cl)c2)CC1,"inconclusive: 35.5 µM [inhibitor, single point]"
11,O=C1c2ccccc2NC(c2ccc(-c3cccc(Cl)c3)o2)N1O (centres undefined),"inconclusive: 7.08 µM [inhibitor, full curve, poor fit]"
12,O=C(Cc1ccccc1)Nc1ccc(C(=O)NCc2ccccc2)cc1,"inconclusive: 35.5 µM [inhibitor, single point]"
13,CC1CN(C(=O)c2cc(-c3ccncc3)nc3ccccc23)CC(C)O1 (centres undefined),inactive
14,Oc1nc(Nc2cccc(Cl)c2)sc1/C=C1\C=Nc2ccccc21,"inconclusive: 3.16 µM [inhibitor, full curve, poor fit]"
15,COc1cc(/C=N/Nc2nc3ccccc3[nH]2)ccc1O,"inconclusive: 3.16 µM [inhibitor, full curve, poor fit]"
16,CCc1[nH]c(=S)c(C#N)c(-c2ccccc2)c1C(=O)OC,active: 15.8 µM
17,CCc1cc2c(CN3CCN(CC)CC3)cc(=O)oc2cc1O,"inconclusive: 22.4 µM [inhibitor, partial curve, poor fit]"
18,N#Cc1ccc(-c2csc(NNC(=O)c3ccc(Br)cc3)n2)cc1,"inconclusive: 15.8 µM [inhibitor, partial curve]"
19,CC(=O)Nc1ccc(S(=O)(=O)NCc2nnnn2-c2ccc(Cl)cc2)cc1,"inconclusive: 39.8 µM [inhibitor, single point]"
20,CC(OC(=O)C1CCCC1)C(=O)Nc1ccc(C(N)=O)cc1 (centres undefined),"inconclusive: 39.8 µM [inhibitor, single point]"
21,Cc1cccc(N=C2NN=C(c3c[nH]c4ccccc34)CS2)c1,"inconclusive: 7.08 µM [inhibitor, single point]"
22,CCC(C)(C)NC(=O)C(c1ccc(C)cc1)N(CC1CCCO1)C(=O)CNC(=O)c1cccs1 (centres undefined),"inconclusive: 5.01 µM [inhibitor, single point]"
23,CCn1cc(CN2CCc3c([nH]c4ccccc34)C2c2ccc(F)c(OC)c2)c(C)n1 (centres undefined),inactive

row,SMILES,Potency
1,CCOc1ccccc1NC(=O)CSc1ccc([N+](=O)[O-])cc1,"inconclusive: 3.55 µM [inhibitor, single point]"
2,O=C(COC(=O)c1ccc(O)cc1)Nc1cccc(S(=O)(=O)N2CCCCC2)c1,active: 8.91 µM
3,CCC(C)N=C1Sc2nc3ccc(C)cc3cc2CN1CCOC (centres undefined),inactive
4,COC(=O)Cc1c(C)c2ccc(OCC(=O)N3CCCC3)c(C)c2oc1=O,inactive
5,O=C1N/C(=N/NC(=O)c2cccc3ccccc23)S/C1=C\c1ccccc1OCc1ccccc1,"inconclusive: 10 µM [inhibitor, full curve, poor fit]"
6,CC(C)C(=O)NC(Nc1cccc([N+](=O)[O-])c1)C(Cl)(Cl)Cl (centres undefined),"inconclusive: 39.8 µM [inhibitor, single point]"
7,CC1CCCC(C)N1C(=O)COC(=O)CSc1ccc(C(N)=O)cc1[N+](=O)[O-] (centres undefined),"inconclusive: 35.5 µM [inhibitor, single point]"
8,COc1ccccc1OCC(=O)NCCS(=O)(=O)N1CCN(c2ccccc2)CC1,"inconclusive: 39.8 µM [inhibitor, single point]"
9,Cc1cccc(CNc2ncnc3ccc(-c4cccc(Cl)c4)cc23)c1,"inconclusive: 39.8 µM [inhibitor, single point]"
10,CCn1c(/C(C#N)=N/O)nc2ccccc21,"inconclusive: 39.8 µM [inhibitor, single point]"
11,O=C(NN1C(=O)NC2(CCCCC2)C1=O)c1ccc(-c2ccc(Cl)cc2)o1,"inconclusive: 22.4 µM [inhibitor, partial curve]"
12,Cc1ccc(C)c(NC(=O)CSc2nc(N)c(NC(=O)c3cccs3)c(=O)[nH]2)c1,active: 14.1 µM
13,COC(=O)c1ccc2c(c1)C(=O)/C(=C/c1ccc(O)cc1)O2,"inconclusive: 20 µM [inhibitor, partial curve, poor fit]"
14,Cc1ccc(SCC(=O)c2sc(-c3ccccc3)nc2C)cc1,"inconclusive: 7.08 µM [inhibitor, single point]"
15,O=C(c1ccc(Cl)cc1)N1CCC(O)(CSc2ccc(Cl)cc2Cl)CC1,"inconclusive: 6.31 µM [inhibitor, single point]"
16,O=C(N/N=C/c1c[nH]c2ccccc12)c1cc(Br)ccc1O,"inconclusive: 12.6 µM [inhibitor, partial curve]"
17,N#Cc1ccc2ccn(CC(=O)N3CCCc4ccccc43)c2c1,"inconclusive: 39.8 µM [inhibitor, single point]"
18,COc1ccc(NC(=O)C2CCN(S(=O)(=O)c3cccc4cccnc34)CC2)cc1,active: 56.2 µM
19,CCOc1ccc(OCc2ccc(C(=O)Nc3ccc(Cl)cn3)o2)cc1,"inconclusive: 5.01 µM [inhibitor, single point]"
20,C=CCn1c(NCc2cc(Cl)ccc2O)nc2ccccc21,active: 14.1 µM
21,Clc1cc(Cl)cc(NC2=NCCS2)c1,"inconclusive: 31.6 µM [inhibitor, single point]"
22,O=C(COC(=O)/C=C/c1cccc(Cl)c1)Nc1ccc2[nH]c(=O)[nH]c2c1,"inconclusive: 3.98 µM [inhibitor, full curve, poor fit]"
23,COc1cc(CNc2ccc3[nH]c(=O)[nH]c3c2)ccc1OCc1ccc(C)cc1,"inconclusive: 31.6 µM [inhibitor, partial curve]"

row,SMILES,Potency
1,CC(C)[C@]1(c2ccc(Cl)cc2)ON(c2ccccc2C(F)(F)F)C1=O,inactive
2,CC(C)C[C@H](N)c1nnc(S(=O)(=O)Cc2cccc(F)c2)o1,active: 4.47 µM
3,CCN1CCN(S(=O)(=O)c2ccc(Cl)c(C(=O)N(C)CCOc3ccc(Cl)cc3)c2)CC1,"inconclusive: 39.8 µM [inhibitor, single point]"
4,Cc1cc(C)c(-c2csc(NC(=O)CCCc3nc4ccccc4c(=O)[nH]3)n2)c(C)c1,active: 35.5 µM
5,COc1ccccc1S(=O)(=O)Cc1ccc(C(=O)NC2CC2)o1,inactive
6,C[C@](N)(Cc1ccc(O)c(O)c1)C(=O)O,"inconclusive: 28.2 µM [inhibitor, single point]"
7,Cc1cc(F)ccc1NC(=O)c1ccc(NS(=O)(=O)c2cc(C(C)(C)C)ccc2C)cc1,"inconclusive: 3.16 µM [inhibitor, full curve, poor fit]"
8,CCc1ccc(O)c(N=Cc2cccc(C)c2O)c1,"inconclusive: 6.31 µM [inhibitor, single point]"
9,CC1(C)CCC(=O)N2CC[C@H]3C[C@H](OC(=O)Nc4ccc(Br)cc4)C[C@@H]1[C@H]32,inactive
10,Cc1cccc(NC(=O)CCCn2c(=S)[nH]c3ccccc3c2=O)c1,"inconclusive: 10 µM [inhibitor, partial curve]"
11,N#C/C(=C\c1ccc(Sc2ccc(Cl)cc2)o1)c1nc2ccccc2[nH]1,active: 28.2 µM
12,CCOC(=O)N1CCC(NC(=O)c2cc(C(=O)NC3CCCC3)ccc2CO)CC1,active: 0.708 µM
13,N#CC1=C(N)SC(N)=C(C#N)C1c1c(Cl)cccc1Cl,"inconclusive: 28.2 µM [inhibitor, single point]"
14,O=C(COC(=O)COc1cccc(F)c1)Nc1nc2ccccc2s1,"inconclusive: 28.2 µM [inhibitor, single point]"
15,CSc1nsc(SCC(=O)Nc2ccccn2)n1,"inconclusive: 5.62 µM [inhibitor, single point]"
16,O=C(NCCc1ccc(Cl)cc1)Nc1ccc(Cl)cc1,"inconclusive: 0.631 µM [inhibitor, full curve, poor fit]"
17,Cc1ccccc1NS(=O)(=O)c1cc(C(=O)NCCSC2CCCCC2)ccc1C,active: 1.26 µM
18,COc1ccc(C)cc1NC(=O)CSc1nnc2ccc(-c3ccncc3)nn12,"inconclusive: 35.5 µM [inhibitor, single point]"
19,O=C(CC1Sc2ccccc2NC1=O)Nc1cccnc1 (centres undefined),inactive
20,O=C(CCN1C(=O)/C(=C/c2ccccc2Cl)SC1=S)NC1C=CS(=O)(=O)C1 (centres undefined),active: 28.2 µM
21,O=C1c2ccccc2C(=O)c2cc(S(=O)(=O)Nc3ccccc3)ccc21,active: 28.2 µM
22,CCN(CC)S(=O)(=O)c1cccc(NC(=O)COC(=O)c2n[nH]c(=O)c3ccccc23)c1,active: 28.2 µM
23,CCc1cccc(NC(=O)C2CCN(S(=O)(=O)c3cccs3)CC2)c1,"inconclusive: 31.6 µM [inhibitor, partial curve]"

# — PubChem BioAssay AID485341 (National Center for Advancing Translational Sciences (NCATS), 2010)
